Measured values reported in PubChem BioAssay (NCI).
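Grown in 96-well plates, cells were treated for 48 hours with each compound at five concentrations. Insufficient inhibition: endpoint recorded as highest concentration tested. The concentration for 50% growth inhibition is given as GI50. TGI: total growth inhibition.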

test system: NCI-H322M lung; test: DTP human tumour cell line panel, 48 h

Row | SMILES | GI50 | TGI
1 | CCN(CC)CCCC(C)NCC(=O)NC(c1ccc2c(c1)OCO2)c1cc(Cl)c2cccnc2c1O (stereo unspecified) | 2.17 µM | 11.7 µM
2 | CCN1C(=O)N(CC)C2SC(N/N=C/c3ccc(OC)cc3)=NC21 (stereo unspecified) | 0.698 µM | > 100 µM
3 | Fc1cccc(Cl)c1/C=N/Nc1nc(N/N=C/c2c(F)cccc2Cl)nc(N2CCCCC2)n1 | 4.12 µM | > 100 µM
